# Patent CN117069831A (SHENZHEN BGI LIFE SCIENCE RES INSTITUTE, dated 2023)
# B1: R-30-FC (Fc fusion)
# chain: QVQLQESGGGLVQSGGSLRLSCTASGGIIRLNSMGWYRQAPGKQREPVATIVSDVGTNYADSVKGRFTISRDNAKNTIYLQMNSLKFEDTAVYYCVADRAFVLRGEYEYWGQGTQVTVSS[letters of human IgG1 Fc omitted]
# notes: also called R-30-FC双价纳米抗体; 双价纳米抗体
# Legend:
# SARS-CoV-2 野生型假病毒 = SARS-CoV-2 野生型假病毒 (SARS-CoV-2); assay: cell-based or functional assay
# 非典SARS-CoV-1 spike RBD = biological target: T1, 非典SARS-CoV-1 spike RBD (SARS-CoV-1); assay: ELISA on coated SARS-CoV-1 RBD, anti human IgG HRP
# T1 construct: domain: RBD; also called 非典病毒RBD; 非典SARS-CoV-1RBD
binder,measurement,setting,value
B1,"假病毒中和 IC50 (luciferase signal, Opti-HEK293/ACE2 cells)",SARS-CoV-2 野生型假病毒,1.64 nM
same,EC50,非典SARS-CoV-1 spike RBD,≤ 0.0126 nM
